The list shows a part of the results. The full chains were built here from the parent and the listed change. Values near 0.05 are background.
B1: TEV protease; numbered along this chain (parent)
chain: MGESLFKGPRDYNPISSSICHLTNESDGHTTSLYGIGFGPFIITNKHLFRRNNGTLVVQSLHGVFKVKDTTTLQQHLVDGRDMIIIRMPKDFPPFPQKLKFREPQREERICLVTTNFQTKSMSSMVSDTSCTFPSGDGIFWKHWIQTKDGQCGSPLVSTRDGFIVGIHSASNFTNTNNYFTSVPKNFMELLTNQEAQQWVSGWRLNADSVLWGGHKVFMVKPEEPFQPVKEATQL

Variants of: B1
Test: raw area under fraction-flipped curve 0-4 h after induction (AUC4h, not background-subtracted), DNA-recorder readout of cleavage of the substrate (dimensionless); higher = more cleavage of the substrate by the protease variant
Conditions: temperature: 34 °C; time window: 0-4 h after rhamnose induction
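Further: Bxb1 expression induced with 0.2% (w/v) L-rhamnose at OD600 near 0.5, cultures sampled hourly, flipped fraction per protease–substrate barcode pair counted by paired-end Illumina sequencing.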

Row | Variant | area with substrate ENLYFES | area with substrate ENLYFFS | area with substrate ENLYFHS | area with substrate ENLYFLS | area with substrate ENLYFMS | area with substrate ENLYFPS | area with substrate ENLYFTS | area with substrate ENLYFVS | area with substrate ENLYFNS | area with substrate ENLYFWS
1 | MGESLFKGPRDYNPISSSICHLTNESDGHTTSLYGIGFGPFIITNKHLFRRNNGTLVVQSLHGVFKVKDTTTLQQHLVDGRDMIIIRMPKDFPPFPQKLKFEEPQREERICLVTTNFQTKSMSSMVSDTSCTFPSGDGIFWKHWIQTKDGQCGSPLVSTRDGFIVGIHSASNFTNTNNYFTSVPKNFMELLTNQEAQQWVSGWRLNADSVLWGGHKVFMVKPEEPFQPVKEATQL [R102E] | 0.0489 | 0.0488 | 0.0454 | 0.0302 | 0.0435 | 0.0525 | 0.0499 | 0.0313 |  | 
2 | MGESLFKGPRDYNPISSSICHLTNESDGHTTSLYGIGFGPFIITNKHLFRRNNGTLVVQSLHGVFKVKDTTTLQQHLVDGRDMIIIRMPKDFPPFPQKLKFREPQREERICLVTTNFQTKSMSSMVSDTSWTFPSGDGIFWKHWIQTKDGQCGSPLVSTRDGFIVGIHSASNFTNTNNYFTSVPKNFMELLTNQEAQQWVSGWRLNADSVLWGGHKVFMVKPEEPFQPVKEATQL [C131W] | 0.0767 | 0.0615 |  | 0.0637 |  | 0.0593 |  |  | 0.0596 | 0.0572
3 | MGESLFKGPRDYNPISSSICHLTNESDGHTTSLYGIGFGPFIITNKHLFRRNNGTLVVQSLHGVFKVKDTTTLQQHLVDGRDMIIIRMPKDFPPFPQKLKFREPQREERRCLVTTNFQTKSMSSMVSDTSCTFPSGDGIFWKHWIQTKDGQCGSPLVSTRDGFIVGIHSASNFTNTNNYFTSVPKNFMELLTNQEAQQWVSGWRLNADSVLWGGHKVFMVKPEEPFQPVKEATQL [I110R] | 0.0488 | 0.0544 | 0.0451 |  | 0.0617 | 0.0627 |  | 0.0439 | 0.0511 | 
4 | MGESLFKGPRDYNPISSSICHLTNESDGHTTSLYGIGFGPFIITNKHLFRRNNGTLVVQSLHGVFKVKDTTTLQQHLVDGRDMIIIRMPKDFPPFPQKLKFREPQREERICLVTTNFQTKSMSSMVSDTSCTFPSGDGISWKHWIQTKDGQCGSPLVSTRDGFIVGIHSASNFTNTNNYFTSVPKNFMELLTNQEAQQWVSGWRLNADSVLWGGHKVFMVKPEEPFQPVKEATQL [F140S] | 0.0618 |  | 0.0477 | 0.0623 | 0.0536 | 0.0516 | 0.0598 |  | 0.0312 | 
5 | MGESLFKGPRDYNPISSSICHLTNESDGHTTSLYGIGFGPFIITNKHLFRRNNGTLVVQSLHGVFKVKDTTTLQQHLVDGRDMIIIRMPKDFPPFPQKLKFREPQREGRICLVTTNFQTKSMSSMVSDTSCTFPSGDGIFWKHWIQTKDGQCGSPLVSTRDGFIVGIHSASNFTNTNNYFTSVPKNFMELLTNQEAQQWVSGWRLNADSVLWGGHKVFMVKPEEPFQPVKEATQL [E108G] | 0.057 | 0.0697 |  |  |  | 0.0552 | 0.06 |  |  | 
6 | MGESLFKGPRDYNPISSSICHLTNESDGHTTSLYGIGFGPFIITNKHLFRRNNGTLVVQSLHGVFKVKDTTTLQQHLVDGRDMIIIRMPKDFPPFPQKMKFREPQREERICLVTTNFQTKSMSSMVSDTSCTFPSGDGIFWKHWIQTKDGQCGSPLVSTRDGFIVGIHSASNFTNTNNYFTSVPKNFMELLTNQEAQQWVSGWRLNADSVLWGGHKVFMVKPEEPFQPVKEATQL [L99M] | 0.0521 | 0.0657 |  |  | 0.0624 | 0.0792 | 0.0572 |  |  | 0.0611
7 | MGESLFKGPRDYNPISSSICHLTNESDGHTTSLYGIGFGPFIITNKHLFRRNNGTLVVQSLHGVFKVKDTTTLQQHLVDGRDMIIIRMPKDFPPFPQKLKFREPQREERICLVTTNFQTKSMSSMVSDTSCTFPSGDGIFWKHWIQTKDGQCGSPLVSTRDGAIVGIHSASNFTNTNNYFTSVPKNFMELLTNQEAQQWVSGWRLNADSVLWGGHKVFMVKPEEPFQPVKEATQL [F163A] | 0.0679 |  |  |  |  |  |  |  | 0.0599 | 
8 | MGESLFKGPRDYNPISSSICHLTNESDGHTTSLYGIGFGPFIITNKHLFRRNNGTLVVQSLHGVFKVKDTTTLQQHLVDGRDMIIIRMPKDFPPFPQKLKFREPQREERICLVTTNFQTKSMSSMVSDTSCTFRSGDGIFWKHWIQTKDGQCGSPLVSTRDGFIVGIHSASNFTNTNNYFTSVPKNFMELLTNQEAQQWVSGWRLNADSVLWGGHKVFMVKPEEPFQPVKEATQL [P134R] | 0.0493 |  | 0.0762 | 0.0601 | 0.0621 | 0.0623 | 0.0655 | 0.0565 |  | 0.0613
9 | MGESLFKGPRDYNPISSSICHLTNESDGHTTSLYGIGFGPFIITNKHLFRRNNGTLVVQSLHGVFKVKDTTTLQQHLVDGRDMIIIRMPKDFPPFPQKLKFREPQREERICLVTTNPQTKSMSSMVSDTSCTFPSGDGIFWKHWIQTKDGQCGSPLVSTRDGFIVGIHSASNFTNTNNYFTSVPKNFMELLTNQEAQQWVSGWRLNADSVLWGGHKVFMVKPEEPFQPVKEATQL [F117P] | 0.0758 |  | 0.0804 |  | 0.0747 | 0.0485 |  | 0.0481 | 0.0585 | 0.1
10 | MGESLFKGPRDYNPISSSICHLTNESDGHTTSLYGIGFGPFIITNKHLFRRNNGTLVVQSLHGVFKVKDTTTLQQHLVDGRDMIIIRMPKDFPPFPQKLKFREPQREERICLVTTNFQTKSMSSMVSDTSCTFPSGDWIFWKHWIQTKDGQCGSPLVSTRDGFIVGIHSASNFTNTNNYFTSVPKNFMELLTNQEAQQWVSGWRLNADSVLWGGHKVFMVKPEEPFQPVKEATQL [G138W] | 0.0594 |  |  |  | 0.0608 |  | 0.0607 | 0.0108 | 0.0809 | 0.0509

Same assay, conditions: temperature: 34 °C; time window: 0-4 h after rhamnose induction

Row | Variant | area with substrate ENLYFIS | area with substrate ENLYFKS | area with substrate ENLYFRS | area with substrate ENLYFSS | area with substrate ENLYFGS | area with substrate ENLYFYS
11 | MGESLFKGPRDYNPISSSICHLTNESDGHTTSLYGIGFGPFIITNKHLFRRNNGTLVVQSLHGVFKVKDTTTLQQHLVDGRDMIIIRMPKDFPPFPQKLKFREPQREERRCLVTTNFQTKSMSSMVSDTSCTFPSGDGIFWKHWIQTKDGQCGSPLVSTRDGFIVGIHSASNFTNTNNYFTSVPKNFMELLTNQEAQQWVSGWRLNADSVLWGGHKVFMVKPEEPFQPVKEATQL [I110R] | 0.0551 | 0.0452 | 0.0429 | 0.0966 |  | 
12 | MGESLFKGPRDYNPISSSICHLTNESDGHTTSLYGIGFGPFIITNKHLFRRNNGTLVVQSLHGVFKVKDTTTLQQHLVDGRDMIIIRMPKDFPPFPQKLKFREPQREERICLVTTNFQTKSMSSMVSDTSCTFPSGDGISWKHWIQTKDGQCGSPLVSTRDGFIVGIHSASNFTNTNNYFTSVPKNFMELLTNQEAQQWVSGWRLNADSVLWGGHKVFMVKPEEPFQPVKEATQL [F140S] | 0.0557 | 0.0625 |  |  |  | 
13 | MGESLFKGPRDYNPISSSICHLTNESDGHTTSLYGIGFGPFIITNKHLFRRNNGTLVVQSLHGVFKVKDTTTLQQHLVDGRDMIIIRMPKDFPPFPQKLKFREPQREGRICLVTTNFQTKSMSSMVSDTSCTFPSGDGIFWKHWIQTKDGQCGSPLVSTRDGFIVGIHSASNFTNTNNYFTSVPKNFMELLTNQEAQQWVSGWRLNADSVLWGGHKVFMVKPEEPFQPVKEATQL [E108G] | 0.0422 |  |  |  |  | 
14 | MGESLFKGPRDYNPISSSICHLTNESDGHTTSLYGIGFGPFIITNKHLFRRNNGTLVVQSLHGVFKVKDTTTLQQHLVDGRDMIIIRMPKDFPPFPQKMKFREPQREERICLVTTNFQTKSMSSMVSDTSCTFPSGDGIFWKHWIQTKDGQCGSPLVSTRDGFIVGIHSASNFTNTNNYFTSVPKNFMELLTNQEAQQWVSGWRLNADSVLWGGHKVFMVKPEEPFQPVKEATQL [L99M] | 0.0455 | 0.0572 |  |  | 0.0571 | 0.0497
15 | MGESLFKGPRDYNPISSSICHLTNESDGHTTSLYGIGFGPFIITNKHLFRRNNGTLVVQSLHGVFKVKDTTTLQQHLVDGRDMIIIRMPKDFPPFPQKLKFREPQREERICLVTTNFQTKSMSSMVSDTSCTFRSGDGIFWKHWIQTKDGQCGSPLVSTRDGFIVGIHSASNFTNTNNYFTSVPKNFMELLTNQEAQQWVSGWRLNADSVLWGGHKVFMVKPEEPFQPVKEATQL [P134R] | 0.0608 | 0.0552 | 0.0537 |  | 0.0559 | 
16 | MGESLFKGPRDYNPISSSICHLTNESDGHTTSLYGIGFGPFIITNKHLFRRNNGTLVVQSLHGVFKVKDTTTLQQHLVDGRDMIIIRMPKDFPPFPQKLKFREPQREERICLVTTNPQTKSMSSMVSDTSCTFPSGDGIFWKHWIQTKDGQCGSPLVSTRDGFIVGIHSASNFTNTNNYFTSVPKNFMELLTNQEAQQWVSGWRLNADSVLWGGHKVFMVKPEEPFQPVKEATQL [F117P] | 0.0594 |  | 0.0542 | 0.0614 |  | 
17 | MGESLFKGPRDYNPISSSICHLTNESDGHTTSLYGIGFGPFIITNKHLFRRNNGTLVVQSLHGVFKVKDTTTLQQHLVDGRDMIIIRMPKDFPPFPQKLKFREPQREERICLVTTNFQTKSMSSMVSDTSCTFPSGDWIFWKHWIQTKDGQCGSPLVSTRDGFIVGIHSASNFTNTNNYFTSVPKNFMELLTNQEAQQWVSGWRLNADSVLWGGHKVFMVKPEEPFQPVKEATQL [G138W] | 0.0547 | 0.0557 | 0.0502 |  |  | 
